# Test results as given in PubChem BioAssay AID2546 (National Center for Advancing Translational Sciences (NCATS), 2010).
# In all, about 310,000 compounds went through this assay and about 11,000 (3.5%) were called active. Inconclusive means that the source gave no clear call. Such entries were picked first, then a sample of the others. The call rests on the fitted dose curve; in most records, active means well fitted inhibition curve with a large enough effect; inconclusive means small, poorly fitted or top-dose-only effect, or effect the other way; inactive means flat fitted curve, though single readings scatter. Potencies of inconclusive entries are left out as doubtful fits.
# Experiment: VP16 counterscreen qHTS for inhibitors of ROR gamma transcriptional activity;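 further: Gal4-VP16 expression switched on by copper sulfate through the metallothionein promoter; nearly all actives have a fitted effect of over 50% in size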
# Settings: Drosophila S2 Gal4-VP16 UAS-luciferase, luminescence, 20 h; activity, negative = inhibition: at 53.6 µM (top of the series)
# On the % scale 0 is the no-effect control and ±100 the full control effect; potency means the concentration at half of the fitted maximal effect; tags describe the fitted curve by direction and shape.
Structure (SMILES),Potency,"activity, negative = inhibition"
Cc1ccc2[nH]cc(CCCN3C(=O)c4ccccc4C3=O)c2c1,"inconclusive [activator, partial curve, poor fit]",–
O=C(CSc1nnnn1-c1ccc2c(c1)OCCO2)OC1CCCCC1,"inconclusive [inhibitor, single point]",–
Cc1ccc(NC2=CC(=O)C(=O)c3ccccc32)cc1,"inconclusive [inhibitor, single point]",–
CCCc1ccc(OCc2ccc(C(=O)NN)o2)c(OC)c1,–,inactive: -0.637%
Cn1cccc1/C=N/NC(N)=S,"inconclusive [inhibitor, single point]",–
Cn1c(NC(=O)c2ccccc2F)c(-c2cccs2)c(=O)c2ccccc21,"inconclusive [inhibitor, full curve, poor fit]",–
Cc1ccc(S(=O)(=O)N(CC(=O)NCCSC2CCCCC2)c2ccccc2F)cc1,"inconclusive [inhibitor, single point]",–
Cc1ccc(NC(=O)CCS(=O)(=O)c2ccc(Br)s2)cc1,–,inactive: 17.5%
Cc1ccc(/C=C/C(=O)c2c(C)nc3ccccn23)cc1,"inconclusive [inhibitor, full curve]",–
CCOC(=O)c1c(NC(=O)COC(=O)c2nc(Cl)ccc2Cl)sc2c1CCC2,–,inactive: -7.51%
Cn1c2c(c(=O)n(C)c1=O)C(c1ccccc1Cl)CC(=O)N2 (stereo not given),"inconclusive [inhibitor, single point]",–
Cc1ccc(-c2c[n+]3c(n2-c2ccccc2)CCC3)cc1,"inconclusive [inhibitor, partial curve]",–
Cc1cc(C)c(-c2nc3ccccc3s2)[nH]1,"inconclusive [inhibitor, partial curve, poor fit]",–
Cc1cc(C)nc(N/N=C/c2ccccc2Cl)n1,"inconclusive [inhibitor, full curve, poor fit]",–
NC(=O)c1c(/N=C/c2cccs2)sc2c1CCCC2,–,inactive: 4.78%
CC1CC(C)CN(C(=S)Nc2ccc(OC(F)F)cc2)C1 (stereo not given),"inconclusive [inhibitor, single point]",–
Cc1nc2c3ccccc3nc(SCC(=O)N3CC(C)CC(C)C3)n2n1 (stereo not given),–,inactive: -0.921%
O=C(NCC1COc2ccccc2O1)c1ccc(Cl)cc1 (stereo not given),"inconclusive [inhibitor, single point]",–
CCC(=O)c1cc(F)c(N2CCN(C(=O)c3ccco3)CC2)cc1C,"inconclusive [inhibitor, single point]",–
CN1c2ccsc2C(O)=C(C(=S)Nc2ccc(F)c(Cl)c2)S1(=O)=O,"inconclusive [inhibitor, single point]",–
